# Experimental data taken from PubChem BioAssay AID463173 (ICCB-Longwood Screening Facility, Harvard Medical School, 2010).
# Among all 52,000 compounds or so, about 1,700 (3.3%) were called active. No stated cut-off is given here; in the data, active means survival mostly below about 52% (no sharp cut-off); inactive means mostly above about 56%. The list shows a part of the results.
# Tested on: Wild type
# Experiment: S. aureus survival, RN4220 and DeltatarO strains – OD600, teichoic acid synthesis inhibitors, primary screen (AID 463173)
# Details: S. aureus RN4220 wild type/DeltatarO growth, OD600, 18 h, hits give low values, screened at 18.75 µg/mL (by protocol)
row,SMILES,survival
1,O=C(NCCCc1nc2ccccc2n1Cc1ccccc1Cl)C1CCCCC1,inactive: 103%
2,CCC(=O)N1CCc2cc(Br)cc(S(=O)(=O)NCCc3ccc(OC)c(OC)c3)c21,inactive: 71%
3,CCn1c(SCc2ccccc2)nnc1-c1nonc1NC(C)=O,inactive: 106%
4,N#CCCSCc1ccc(C(=O)O)o1,inactive: 107%
5,Cc1[nH]n2c(=O)cc(-c3ccccc3Cl)nc2c1-c1ccccc1,active: -13%
6,CCOC(=O)C1CCCN(C(=O)Cn2ncc3c([nH]c4ccccc43)c2=O)C1 (configuration not stated),inactive: 88%
7,COc1ccc(C(CC(=O)Nc2ccc(F)c(Cl)c2)N2Cc3ccccc3C2=O)cc1OC (configuration not stated),inactive: 63%
8,COC(=O)CC(=O)CSc1nc(C)cc(C(F)(F)F)c1C#N,inactive: 97%
9,COc1cc(C(=O)N2CCCN(c3nc4cc(C)ccc4cc3C#N)CC2)cc(OC)c1OC,inactive: 102%
10,Cc1cc(NC(=O)CN2C(=O)C(C)(C)c3ccccc32)ccc1Br,inactive: 63%
11,Cc1cccc(OCC(=O)Nc2ccc(S(N)(=O)=O)cc2)c1C,inactive: 110%
12,CCN(C(=O)CSc1nc2ccccc2n1CC(=O)Nc1cccc(C#N)c1)c1ccccc1,inactive: 124%
13,Cc1ccc(CNC(=O)CC2Oc3ccccc3NC2=O)cc1 (configuration not stated),inactive: 77%
14,O=S1(=O)N=C(N(Cc2ccco2)c2ccc(O)cc2)c2ccccc21,inactive: 122%
15,Cc1ccc(N2CC3=C(C2=O)C(c2ccc(Br)cc2)NC(=O)N3C)cc1 (configuration not stated),inactive: 92%
16,CC(C)c1ccc(NS(=O)(=O)c2ccc3[nH]cc(C(=O)NC4CCCC4)c(=O)c3c2)cc1,active: 7%
17,O=C(Cn1c(=O)oc2cc(S(=O)(=O)N3CCCCCC3)ccc21)Nc1cccc(C(F)(F)F)c1,inactive: 77%
18,CCn1c(=O)cc(SCC(=O)Nc2ccc(C)c(F)c2)c2ccccc21,inactive: 74%
19,Cc1ccccc1CNC(=O)c1ccc(NC(=O)c2nsc3ccccc23)cc1,inactive: 82%

row,SMILES,survival
1,Cc1ccccc1Nc1sc(C(=O)c2ccc3c(c2)OCO3)c(N)c1S(=O)(=O)c1ccccc1,inactive: 68%
2,Cc1ccc(-c2nc(C(=O)NCc3ccc(Cl)cc3)c3n2CCCCC3)cc1,inactive: 70%
3,O=C1Cc2cc(S(=O)(=O)N3CCN(c4ccccc4)CC3)ccc2N1,inactive: 88%
4,Cc1cccc(NC(=O)Nc2nnc(N(C)C3CCCCC3)s2)c1C,inactive: 117%
5,CCOc1ccc(N(CC(=O)Nc2ccccc2)S(C)(=O)=O)cc1,inactive: 110%
6,CCOc1ccccc1-n1ccnc(NCc2ccc(F)cc2)c1=O,inactive: 101%
7,CCc1ccccc1N(C)C(=O)c1cn(CC(C)C)c(=O)c2cc(OC)c(OC)cc12,inactive: 98%
8,Cc1nn(CC(=O)NCc2ccco2)c(=O)c2cc3ccccc3n12,inactive: 91%
9,O=C(CCC(=O)N1Cc2ccccc2Oc2ncccc21)Nc1ccc(Cl)cc1,active: 10%
10,COc1ccc(-c2nn(CC(=O)NC3CCCC3)c3c2cnc2ccc(F)cc23)cc1,inactive: 64%
11,CC1CCN(S(=O)(=O)c2ccc3c(c2)N(CC(=O)NCc2ccccc2)C(=O)CO3)CC1,inactive: 118%
12,COc1ccc(N2CCN(C(=O)c3cc4c(-c5ccccc5F)nn(C)c4s3)CC2)cc1,inactive: 55%
13,COc1ccc(OC)c(NC2=C(c3ccccc3)C(=O)c3ccccc32)c1,inactive: 69%
14,O=C(Cn1ncc2c(=O)oc3ccccc3c21)Nc1cc(F)ccc1F,inactive: 76%
15,COC(=O)c1ccc(Cl)cc1NC(=O)N1CC=C(c2c[nH]c3ccccc23)CC1,inactive: 76%
16,Cc1cccc(OCCCC(=O)Nc2sc3c(c2C(N)=O)CCC(C)C3)c1 (configuration not stated),inactive: 88%
17,CCN(CC)c1nc(-c2ccc(C(C)(C)C)cc2)nc2ccccc12,active: -2%
18,O=C(CSc1nc2nccnc2c(=O)n1CCc1c[nH]c2ccccc12)Nc1ccccc1F,inactive: 63%
19,Oc1ccccc1Nc1nc(-c2ccccc2)c2cc(Cl)ccc2n1,inactive: 103%

row,SMILES,survival
1,COc1ccc(/C=C(\C#N)c2nc(-c3cc(Cl)ccc3OC)cs2)cc1,inactive: 116%
2,O=C1CS(=O)(=O)C2(C(=O)N(Cc3cccc(F)c3)c3ccccc32)N1c1ccccc1 (configuration not stated),inactive: 95%
3,COc1ccc2c(CNCC(C)c3ccccc3)c(C(=O)O)n(Cc3ccc(F)cc3Cl)c2c1 (configuration not stated),inactive: 118%
4,COc1cc(OC)c(NC(=O)c2c(C)oc3ncn(C)c(=O)c23)cc1Cl,inactive: 88%
5,CCOc1ccc(CCNC(=O)CCc2c(C)nc3c(c(C)nn3-c3ccccc3)c2C)cc1OCC,inactive: 80%
6,CCOc1ccc(NC(=O)c2ccc(NC(=O)CCS(=O)(=O)c3cccs3)cc2)cc1,inactive: 95%
7,Cc1ccc(C2CC(=O)N(Cc3ccccc3F)c3c2c(C)nn3-c2nc(C)cc(C)n2)cc1 (configuration not stated),inactive: 89%
8,Cc1ccc(Cc2nc3ccccc3nc2SCC(=O)N2CCc3ccccc32)cc1,inactive: 66%
9,CCn1cc(C(=O)N2CCN(c3cccc(Cl)c3)CC2)c(=O)c2cc(S(=O)(=O)N3CCOCC3)ccc21,inactive: 82%
10,COc1ccc(NC(=O)Nc2nnc(N3CCCCCC3)s2)cc1,inactive: 75%
11,CN(C)CCNC(=O)C1CCN(c2nc3ccccc3[nH]2)CC1,inactive: 47%
12,Cc1c(NC(=O)c2cc([N+](=O)[O-])ccc2N2CCOCC2)cccc1-c1nc2ccccc2o1,inactive: 69%
13,Cc1ccc(NC(=O)c2nc(S(C)(=O)=O)ncc2N(Cc2ccccc2)Cc2ccco2)c(C)c1,inactive: 78%
14,Cc1ccc(C(=O)Nc2c(-c3ccccc3)nc3ccccn23)cc1C,inactive: 55%
15,Cc1nn(-c2ccc(F)cc2)c(-n2cccc2)c1C(=O)N1CCN(c2ccc(F)cc2)CC1,inactive: 69%
16,COc1ccc(NC(=O)c2nnn(Cc3ccccc3C)c2N)c(OC)c1,inactive: 82%
17,O=C(CSc1nc2ccccc2o1)NC1CC1,inactive: 86%
18,Cc1ccc(CNC(=O)Cn2c3ncccc3c(=O)n2-c2ccccc2)cc1,inactive: 71%
19,O=C(CSc1ccc(-c2ccccn2)nn1)Nc1ccc(F)c(F)c1,inactive: 71%
